42 molecules from PubChem BioAssay AID588579 (National Center for Advancing Translational Sciences (NCATS), 2011) can be followed below.

“And” between values parts separate entries of the source, which are not always exact repeats. Equal entries are not always repeated. In all, about 400,000 compounds went through this assay and about 2,200 (0.55%) were called active. About 1% were inconclusive and are not listed. The call rests on the fitted dose curve; in most records, active means well fitted inhibition curve with a large enough effect; inconclusive means small, poorly fitted or top-dose-only effect, or another doubt; inactive means no such curve, though single readings can be large or run the other way. The list shows a part of the results, in another mix than the full data. Some structures have more than one record in an assay (separate samples or runs), and their calls can disagree.
On the % scale 0 is the no-effect control and ±100 the full control effect; potency means the concentration at half of the fitted maximal effect.

UniProt Q9UBT6, sequence (Q9UBT6 whole entry, looked up): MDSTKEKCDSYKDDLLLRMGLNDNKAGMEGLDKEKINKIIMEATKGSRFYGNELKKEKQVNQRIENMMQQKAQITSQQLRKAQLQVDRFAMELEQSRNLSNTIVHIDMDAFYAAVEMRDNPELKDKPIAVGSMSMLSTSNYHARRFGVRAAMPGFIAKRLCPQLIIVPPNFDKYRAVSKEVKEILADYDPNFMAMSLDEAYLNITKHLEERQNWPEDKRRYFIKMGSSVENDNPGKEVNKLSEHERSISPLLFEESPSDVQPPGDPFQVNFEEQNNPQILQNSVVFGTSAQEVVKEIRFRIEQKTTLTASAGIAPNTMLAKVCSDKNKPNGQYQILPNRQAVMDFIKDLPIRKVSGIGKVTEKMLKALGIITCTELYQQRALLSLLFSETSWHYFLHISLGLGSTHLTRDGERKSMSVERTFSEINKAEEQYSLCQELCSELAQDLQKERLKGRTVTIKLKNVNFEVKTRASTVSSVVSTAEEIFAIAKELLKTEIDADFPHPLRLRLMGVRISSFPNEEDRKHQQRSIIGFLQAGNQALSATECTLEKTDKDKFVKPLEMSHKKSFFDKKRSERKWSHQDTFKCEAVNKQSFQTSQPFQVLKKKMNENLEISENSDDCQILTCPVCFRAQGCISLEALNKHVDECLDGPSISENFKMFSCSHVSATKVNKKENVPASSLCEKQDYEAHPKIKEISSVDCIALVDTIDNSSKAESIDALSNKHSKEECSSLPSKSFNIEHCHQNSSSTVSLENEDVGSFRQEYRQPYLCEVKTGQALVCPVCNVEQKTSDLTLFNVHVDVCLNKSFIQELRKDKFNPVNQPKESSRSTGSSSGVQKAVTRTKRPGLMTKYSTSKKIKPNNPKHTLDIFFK

The assay addresses DNA polymerase kappa (Homo sapiens) (UniProt Q9UBT6). The assay can be described thus: qHTS for Inhibitors of Polymerase Kappa. The conditions noted are these: purified Pol kappa, fluorescent DNA synthesis assay, 10 min; series mostly up to 107 µM; activity, negative = inhibition: at the top concentration. The procedure, abridged:
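Activity was followed as the change in fluorescence between reads at 0 and 10 min after starting the reaction with 50 nM substrate. Beforehand, 10 nM polymerase had been preincubated with compound for 15 min at room temperature.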
For orientation: Quantitative high-throughput screening tests each substance at several concentrations.
As to `OCC(O)C(O)C(O)CO` (configuration not stated), the “activity, negative = inhibition” value is inactive: -2.18% [at 60.1 µM]. Take `CCOC(=O)/C(=C\c1ccc(N2CCC(c3ccccc3)=N2)cc1)C(C)=O`: the “activity, negative = inhibition” value is inactive: -5.25%.

As to `CN1C=CC(=C2C=CN(C)C=C2)C=C1`, the “activity, negative = inhibition” value is inactive: 13.2% [at 60.1 µM].

As for `CC[C@@]1([C@@H]2O[C@@H]([C@H]3O[C@@](O)(CO)[C@H](C)C[C@@H]3C)C[C@@H]2C)CC[C@H]([C@]2(C)CC[C@]3(C[C@H](O)[C@@H](C)[C@@H]([C@@H](C)[C@@H](OC)C(C)C(=O)O)O3)O2)O1` (some centres not stated), the “activity, negative = inhibition” value was inactive: -12.5% [at 60.1 µM]. Take `Cc1ccc(C)n1-c1nc(=S)[nH][nH]1`: the Potency is active: 28.2 µM. In the case of `CCOC(=O)C1=C(c2ccccc2)c2ccc(OC)cc2N(S(=O)(=O)C(F)(F)F)C1C(=O)OCC` (configuration not stated), the “activity, negative = inhibition” value was inactive: -8.32%. Same read-out and setting: the result for `CC(C)CCCC(C)C1CCC2C3CC=C4CC(O)CCC4(C)C3CCC12C` (configuration not stated) reads inactive: -10.5% [at 19.4 µM]; that for `NC(=O)[C@@H]1CCCN1C(=O)C(Cc1cnc[nH]1)NC(=O)C1CCC(=O)N1` (some centres not stated), inactive: 15.5% [at 60.1 µM]. `CC(=O)c1ccc(S(=O)(=O)N2Cc3ccccc3CC2C(=O)O)cc1` (configuration not stated): the Potency is active: 50.1 µM.

As for `CC(C)Cc1ccc([C@@H](C)C(=O)NS(C)(=O)=O)cc1`, the “activity, negative = inhibition” value is inactive: 8.88% [at 60.1 µM]. As to `CCCCNC(=O)c1ccccc1NC(=O)CN(c1ccccc1)S(=O)(=O)N(C)C`, the “activity, negative = inhibition” value was inactive: -3.59%. `O=C1Nc2ccc(I)cc2/C1=C/c1cc(Br)c(O)c(Br)c1`: the activity, negative = inhibition is inactive: -11.3% [at 19.4 µM] and inactive: 1.7% [at 19.4 µM].

For `O=C(O)CCCC[C@@H]1CCSS1`, the Potency entry was “inactive”. Regarding `CCN(CC)c1ccc(/C=C(\C#N)C(=O)c2ccc(Br)cc2)cc1`, the Potency is active: 22.4 µM.

With `NC(=O)N1c2ccccc2CC(=O)c2ccccc21`, the “activity, negative = inhibition” value is inactive: -11.3%. Turning to `COc1ccc(S(=O)(=O)N2CCN(CC(=O)c3ccc(O)c(O)c3)CC2)cc1`, the Potency was active: 31.6 µM. `COc1ccc(C2=Nn3c(nnc3-c3ccccc3Cl)SC2)cc1OCC1CC1`: the Potency was active: 39.8 µM.

With `Cc1ccc(C)c(S(=O)(=O)N2CCN(C(=O)/C=C/c3ccco3)CC2)c1`, the Potency was active: 50.1 µM. For `OC[C@@H]1OC(O)[C@@H](O)[C@H](O)[C@@H]1O` (some centres not stated), the “activity, negative = inhibition” value was inactive: 5.33% [at 60.1 µM]. For the molecule `COc1cc2c(c(OC)c1OC)C(c1ccc(C)cc1)CC(=O)O2` (configuration not stated), the “activity, negative = inhibition” value is inactive: 11.4%. Regarding `O=c1[nH]c2cc(Cl)c(Cl)cc2[nH]c1=O`, the Potency entry is “inactive”. On to `O=C1c2ccccc2-c2onc3ccc(NCCCn4ccnc4)c1c23`, for which the Potency is active: 20 µM. For `CCC(C)[C@@H](N)C(=O)O` (some centres not stated), the Potency result was “inactive”.

Take `C[C@H](O)C(N)C(=O)O` (some centres not stated): the Potency result is “inactive”. In the case of `C=C1CCN([C@H](C(=O)O)C(C)C)S(=O)(=O)c2ccccc21`, the “activity, negative = inhibition” value is inactive: -10.1%. Take `C[C@]12CC[C@H]3c4ccc(O)cc4CC[C@@H]3[C@H]1CC[C@@H]2OC(=O)CCC1CCCC1`: the “activity, negative = inhibition” value was inactive: -12.9% [at 60.1 µM]. For the molecule `N=C(CC(O)COc1ccccc1-c1ccccc1)N1CCCCC1` (configuration not stated), the activity, negative = inhibition was inactive: 1.96% [at 19.4 µM]. Take `N#Cc1c(NC(=O)COC(=O)c2ccc(O)cc2O)sc2c1CCC2`: the Potency was active: 79.4 µM. Consider `O=c1[nH]c2cc(Cl)ccc2c(O)c1-c1cccc(Oc2ccccc2)c1`, for which the Potency entry was “inactive”. For the molecule `C=CCN1CCc2c(cc(O)c(O)c2Cl)C(c2ccccc2)C1` (configuration not stated), the Potency entry is “inactive”. With `CC1=C(C(=O)O)N2C(=O)[C@@H](NC(=O)C(N)C3=CCC=CC3)[C@H]2SC1` (some centres not stated), the “activity, negative = inhibition” value is inactive: -3.64% [at 60.1 µM]. On to `CN(C)CCCNc1c2ccccc2nc2ccccc12`, for which the Potency is active: 25.1 µM. As for H-IKVAV-OH, the “activity, negative = inhibition” value was inactive: 15.7% [at 60.1 µM].

On to `CN(C[C@H](Cc1ccccc1)N(C[C@@H](CC1CCCCC1)N(CCc1ccccc1)N=O)N=O)N=O`, for which the “activity, negative = inhibition” value is inactive: -9.07%. Turning to `COc1ccc(-c2coc3cc(O)ccc3c2=O)c(O)c1O`, the Potency was active: 1.78 µM. The same measure, in the same setting: with `COC(=O)[C@@H](N)Cc1ccc(O)c(O)c1` the entry was “inactive”. `O=C(O)CCN1C(=O)/C(=C\c2ccc(-c3nc4ccccc4s3)o2)SC1=S`: the “activity, negative = inhibition” value is inactive: -23.9%. For the molecule `COc1ccc(C(CC(=O)N2CCOCC2)c2c(OC)cc(OC)c3ccc(=O)oc23)cc1` (configuration not stated), the “activity, negative = inhibition” value is inactive: -23.2%. Same read-out and setting: with `CSCC[C@H](NC(=O)CNC(=O)CNC(=O)[C@H](CO)NC(=O)[C@H](CCCNC(=N)N)NC(=O)[C@H](CO)NC(=O)[C@H](CC(C)C)NC(=O)[C@H](CC(C)C)NC(=O)CNC(=O)[C@H](C)NC(=O)[C@H](CC(C)C)NC(=O)[C@H](CCCNC(=N)N)NC(=O)[C@H](Cc1cnc[nH]1)NC(=O)[C@@H](NC(=O)[C@@H](N)C(C)C)[C@@H](C)O)C(=O)N[C@H](C(=O)N[C@@H](CCCCN)C(=O)N[C@@H](CO)C(=O)N[C@@H](CC(N)=O)C(=O)N[C@@H](Cc1ccccc1)C(=O)N[C@H](C(=O)N1CCC[C@H]1C(=O)N[C@H](C(=O)N[C@@H](CC(N)=O)C(=O)N[C@H](C(=O)NCC(=O)N[C@@H](CO)C(=O)N[C@@H](CCCCN)C(=O)N[C@@H](C)C(=O)N[C@@H](Cc1ccccc1)C(N)=O)C(C)C)[C@@H](C)O)C(C)C)C(C)C` the figure was inactive: 14.8% [at 60.1 µM].

Regarding `O=C(O)CCNc1cc(N2CCN(C(=O)c3ccco3)CC2)c2noc3c2c1C(=O)c1ccccc1-3`, the Potency is active: 12.6 µM. The same measure, in the same setting: the result for `O=C(O)c1cc2cccc([N+](=O)[O-])c2[nH]1` reads active: 44.7 µM. Consider `NCCC(O)(P(=O)(O)O)P(=O)(O)O`, for which the Potency result is “inactive”.
